Assay results reported in PubChem BioAssay AID1745853 (National Center for Advancing Translational Sciences (NCATS), 2022).
The other results are listed elsewhere or left out. These are further read-outs of the screen, such as a control signal, another cell line or another target. No call is given for them.

Legend:
Test in all cases: Primary Screen for Target Class Profiling of Small Molecule Inhibitors of Methyltransferases
[1] = biological target: Glycine N-methyltransferase (Homo sapiens) (UniProt Q14749); conditions: purified enzyme, MTase-Glo SAH luminescence; measured here: GNMT inhibition; at 40 µM; stronger effect = lower value
Text: (§1) PI: Matthew D. Hall Ph.D. and Quinlin M. Hanson Ph.D.
(§2) National Center for Advancing Translational Sciences (NCATS)
(§3) National Institute of Health (NIH), Rockville, MD
(§4) Target class profiling (TCP) is a chemical biology approach amenable to investigating understudied biological targets. TCP is achieved by developing a generalizable assay platform and applying it to screen a curated set of compound libraries against representative members of a target class. Small molecule methyltransferases (SMMTase) are a subclass of methyltransferase that act on metabolites to modulate signaling pathways, metabolize xenobiotics, or balance the available methyl pool. We screened four curated libraries totaling 27,574 unique compounds against the SMMTases nicotinamide N-methyltransferase (NNMT), phenylethanolamine N-methyltransferase (PNMT), histamine N-methyltransferase (HNMT), glycine N-methyltransferase (GNMT), catechol O-methyltransferase (COMT), and guanidinoacetate N-methyltransferase (GAMT). The data generated by this TCP can be leveraged for informed tool molecule development. For example, in the associated publication we identified a chemotype of HNMT-selective inhibitors. Additionally, we identified a putative SMMTase-selective inhibitor with potential as a tool molecule for studying broader methyltransferase biology.
(§5) High-through put screening assays were developed at the National Center for Advancing Translational Science (NCATS) for the enzymes NNMT, PNMT, HNMT, GNMT, COMT, and GAMT. Enzymatic activity was measured as a function of SAM cofactor conversion using the MTase Glo kit (Promega) for all enzymes. All assays were performed in 1536-well format with substrates and SAM concentrations at KM values. Enzyme concentration and assay timing were optimized for 10-20% SAM conversion. Initial screening of 27,574 compounds was done as single-point assays using the highest compound concentration (40 uM). […] These compounds were replated in 11-point dose response and assayed against NNMT, PNMT, HNMT, GNMT, COMT, GAMT, and a counter-assay. The IC50 and efficacy (maximal response) values were determined for each dose-response curve. These values are also accounted for in the area under the curve (AUC) values.
(§6) PROTOCOL TABLE (as described by Inglese J, Shamu CE and Guy RK. 2007)
(§7) SEQUENCE No. (e.g., 1, 2, 3, etc.); […] (e.g., Cells, Incubation, Reagent, etc.); VALUE; DESCRIPTION.
(§8) 1; Reagent; 2 uL; SMMTase Enzyme (2x) in reaction buffer, columns 1- 48.
(§9) 2; Reagent; 1 uL; SAM (4x) in reaction buffer, columns 1-48.
(§10) 3; Controls; 23 nL; DMSO in column 4; sinefungin in DMSO (0 uM - 40 uM) in 7-point 1:2 dilution series (n = 2) in column 2.
(§11) 4; Compounds; 23 nL; Columns 5-48.
(§12) 5; Reagent; 1 uL; Substrate (4x) in reaction buffer, columns 2-48.
(§13) 6; Time; 20-30 min; Incubation.
(§14) 7; Reagent; 1 uL; MTase-Glo reagent (5X), columns 1-48.
(§15) 8; Time; 30 min; Incubation.
(§16) 9; Reagent; 5 uL; MTase-Glo Detection reagent, columns 1-48.
(§17) 10; Time; 30 min; Incubation, luminescence evolution.
(§18) 11; Detection; Luminescence; ViewLux uHTS Microplate Imager (PerkinElmer).
(§19) NOTES (numbers refer to Sequence numbers above)
(§20) 1, 2, 5. White Medium Binding Greiner 1536-well plates (Cat #789175-F, Greiner Bio-One, Monroe, NC); Reaction buffer: 50 mM Tris, pH 8.0, 3 mM MgCl2, 1 mM EDTA, 50 mM NaCl, 1 mM DTT, and 0.1 mg/mL BSA. Evaporation was prevented by covering assay plates with metal lids containing holes to allow gas diffusion.
(§21) 1. Six SMMTase were profiled: HNMT, GNMT, PNMT, COMT, NNMT, GAMT
(§22) 5. The corresponding substrate was used for each enzyme: HNMT - 5.3 uM Histamine; GNMT - >500 uM Glycine; PNMT - 16.2 uM Norephinephrine; COMT - 13.7 uM Norephinephrine; NNMT - 3.8 uM Nicotinamide; GAMT - 2.5 uM Guanidinoacetate.6, 8, 10. Room temperature
(§23) 6. Final reaction conditions: 10 nM COMT, 5 uM SAM, 15 uM norepinephrine, 50 mM Tris, pH 8.0, 3 mM MgCl2, 1 mM EDTA, 50 mM NaCl, 1 mM DTT, and 0.1 mg/mL BSA; refer to tables 2 and S1 for specific timing.
8. […]

[2] = biological target: Guanidinoacetate N-methyltransferase (Homo sapiens) (UniProt Q14353); conditions: purified enzyme, MTase-Glo SAH luminescence; measured here: GAMT inhibition; at 40 µM; stronger effect = lower value
Text: as §1, §2, §3, §4, §5, §6, §7, §8, §9, §10, §11, §12, §13, §14, §15, §16, §17, §18, §19, §20, §21, §22, §23
8. […]

[3] = biological target: Histamine N-methyltransferase (Homo sapiens) (UniProt P50135); conditions: purified enzyme, MTase-Glo SAH luminescence; measured here: HNMT inhibition; at 40 µM; stronger effect = lower value
Text: as §1, §2, §3, §4, §5, §6, §7, §8, §9, §10, §11, §12, §13, §14, §15, §16, §17, §18, §19, §20, §21, §22, §23
8. […]

[4] = biological target: Nicotinamide N-methyltransferase (Homo sapiens) (UniProt P40261); conditions: purified enzyme, MTase-Glo SAH luminescence; measured here: NNMT inhibition; at 40 µM; stronger effect = lower value
Text: as §1, §2, §3, §4, §5, §6, §7, §8, §9, §10, §11, §12, §13, §14, §15, §16, §17, §18, §19, §20, §21, §22, §23
8. […]

[5] = biological target: Phenylethanolamine N-methyltransferase (Homo sapiens) (UniProt P11086); conditions: purified enzyme, MTase-Glo SAH luminescence; measured here: PNMT inhibition; at 40 µM; stronger effect = lower value
Text: as §1, §2, §3, §4, §5, §6, §7, §8, §9, §10, §11, §12, §13, §14, §15, §16, §17, §18, §19, §20, §21, §22, §23
8. […]
% is scaled to controls: 0 for no effect and ±100 for the full control effect.

Structure (SMILES): O=C(Nc1ccc(F)cc1)c1cc2cccnn2n1
- activity change, negative = inhibition [1]: -14.6%
- activity change, negative = inhibition [2]: -15.8%
- activity change, negative = inhibition [3]: -11.3%
- activity change, negative = inhibition [4]: -23.4%
- activity change, negative = inhibition [5]: -19%

Structure (SMILES): CC1CCCC(NC(=O)C2(C)Cn3c(cc4occc43)C(=O)N2Cc2cccc(F)c2)C1C (stereo not given)
- activity change, negative = inhibition [1]: -6.62%
- activity change, negative = inhibition [2]: 2.19%
- activity change, negative = inhibition [3]: -4.19%
- activity change, negative = inhibition [4]: -1.18%
- activity change, negative = inhibition [5]: -3%

Structure (SMILES): CCc1nc2c(sc3nc4c(cc32)COC(C)(C)C4)c(=O)n1Cc1ccco1
- activity change, negative = inhibition [2]: -11%
- activity change, negative = inhibition [4]: -22.5%
- activity change, negative = inhibition [5]: -9.27%

Structure (SMILES): COCCNC(=O)[C@H]1C[C@H](Oc2cccnc2)CN1S(=O)(=O)c1cn(C)cn1
- activity change, negative = inhibition [1]: -0.878%
- activity change, negative = inhibition [2]: -0.962%
- activity change, negative = inhibition [3]: -0.062%
- activity change, negative = inhibition [4]: 1.51%
- activity change, negative = inhibition [5]: 4.51%

Structure (SMILES): CC1=CC(=O)C(C(C)C)=CC1=O
- activity change, negative = inhibition [2]: 9.67%
- activity change, negative = inhibition [4]: -1.67%
- activity change, negative = inhibition [5]: 7.07%

Structure (SMILES): O=C(O)CC[C@@H]1CN(C(=O)c2ccc(CO)o2)CC[C@@H]1N1CCOCC1
- activity change, negative = inhibition [1]: -4.18%
- activity change, negative = inhibition [2]: -4.32%
- activity change, negative = inhibition [3]: -4.41%
- activity change, negative = inhibition [4]: 0.234%
- activity change, negative = inhibition [5]: -7.43%

Structure (SMILES): Cc1cc(C)cc(NC(=O)Cn2nc3n(C(C)C)c(=O)c4ccc(C(=O)NCC(C)C)cc4n3c2=O)c1
- activity change, negative = inhibition [1]: 1.95%
- activity change, negative = inhibition [2]: 0%
- activity change, negative = inhibition [3]: 5.58%
- activity change, negative = inhibition [4]: 2.64%
- activity change, negative = inhibition [5]: 6.14%

Structure (SMILES): Cc1ccc(CNC(=O)N2CCCC(CN3CCC(C)CC3)CC2)cc1 (stereo not given)
- activity change, negative = inhibition [1]: 0.313%
- activity change, negative = inhibition [2]: 0.545%
- activity change, negative = inhibition [3]: -7.04%
- activity change, negative = inhibition [4]: -1.47%
- activity change, negative = inhibition [5]: -1.39%

Structure (SMILES): Cc1ccc(N2C(=O)c3cc4sccc4n3CC2(C)C(=O)NC2CCCCCC2)cc1C (stereo not given)
- activity change, negative = inhibition [1]: -7.82%
- activity change, negative = inhibition [2]: -0.452%
- activity change, negative = inhibition [3]: -8.89%
- activity change, negative = inhibition [4]: -7.69%
- activity change, negative = inhibition [5]: -9.73%

Structure (SMILES): COc1cc(N2CCC(N(C)C)CC2)ccc1Nc1ncc(Cl)c(Nc2ccccc2P(C)(C)=O)n1
- activity change, negative = inhibition [1]: 1.19%
- activity change, negative = inhibition [2]: 5.82%
- activity change, negative = inhibition [3]: -60.8%
- activity change, negative = inhibition [4]: -13.7%
- activity change, negative = inhibition [5]: 5.53%

Structure (SMILES): CN(CC1CCOC1)C(=O)c1cccs1 (stereo not given)
- activity change, negative = inhibition [1]: -7.93%
- activity change, negative = inhibition [2]: -13.4%
- activity change, negative = inhibition [3]: -6.33%
- activity change, negative = inhibition [4]: -21.7%
- activity change, negative = inhibition [5]: -16.1%

Structure (SMILES): CCCn1cc(C(=O)NCC2COc3cc(OC)ccc3C2)c(C)n1 (stereo not given)
- activity change, negative = inhibition [1]: -5.67%
- activity change, negative = inhibition [2]: -6.41%
- activity change, negative = inhibition [3]: 0.4%
- activity change, negative = inhibition [4]: -9.9%
- activity change, negative = inhibition [5]: -8.63%

Structure (SMILES): COc1ccc(N2CCN(CCNS(=O)(=O)c3ccc4[nH]c(=O)[nH]c4c3)CC2)cc1
- activity change, negative = inhibition [1]: 11.1%
- activity change, negative = inhibition [2]: 2.2%
- activity change, negative = inhibition [3]: 8.65%
- activity change, negative = inhibition [4]: 0.898%
- activity change, negative = inhibition [5]: 5.87%

Structure (SMILES): CC(C)CN(C[C@@H](O)[C@H](Cc1ccccc1)NC(=O)O[C@@H]1CO[C@H]2OCC[C@H]21)S(=O)(=O)c1ccc(N)cc1
- activity change, negative = inhibition [1]: 0.222%
- activity change, negative = inhibition [3]: -0.886%

Structure (SMILES): Cc1sc(C)c(C(=O)NC2(c3ccc(C(=O)O)cc3)CC2)c1Cc1ccc(C(F)(F)F)cc1
- activity change, negative = inhibition [1]: 4.56%
- activity change, negative = inhibition [2]: -1.34%
- activity change, negative = inhibition [3]: 10.9%
- activity change, negative = inhibition [4]: -23.4%
- activity change, negative = inhibition [5]: -4.7%

Structure (SMILES): CCOc1ccccc1CNC(=O)c1cc2n(n1)CC(C)(C(=O)NCc1ccccc1)N(C)C2=O (stereo not given)
- activity change, negative = inhibition [1]: 0.085%
- activity change, negative = inhibition [2]: -0.291%
- activity change, negative = inhibition [3]: 4.35%
- activity change, negative = inhibition [4]: -1.79%
- activity change, negative = inhibition [5]: -0.179%

Structure (SMILES): COC(=O)C1C(O)CCC2CN3CCc4c([nH]c5ccccc45)C3CC21 (stereo not given)
- activity change, negative = inhibition [1]: -9.9%
- activity change, negative = inhibition [3]: 1.35%
